# Reference: PubChem BioAssay AID624418 (National Center for Advancing Translational Sciences (NCATS), 2012)
# Values joined by “and” are separate entries in the source; they are usually repeats but may differ in a detail not shown here. Equal values may be shown once. Among all 410,000 compounds or so, about 530 (0.13%) were called active. This list was built around the results that the source calls inconclusive (neither active nor inactive); the mix of calls is not that of the screen. Calls follow the shape of the dose curve; as a rule, active = well fitted inhibition curve with a large enough effect; inconclusive = small, poorly fitted or top-dose-only effect, or another doubt; inactive = no such curve, though single readings can be large or run the other way. Potencies beside an inconclusive call are fits to weak or partial responses and may not hold up.
# Assay: qHTS of GLP-1 Receptor Inverse Agonists: Cytotox Screen
# Settings: HEK293 cAMP-luciferase reporter cells, luminescence, 24 h; series mostly up to 38.3 µM
# Outline: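 To flag toxic compounds, the library was rerun on cells for 24 hr at 37 deg C and 5% CO2. Viability-linked luminescence was captured 12 min after adding luciferase detection reagent.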
# Potency is read from the fitted curve at half-maximal effect.
row,Compound,Potency
1,Cc1ccccc1COC(=O)c1nn(-c2ccccc2)nc1N,"inconclusive: 28.2 µM [inhibitor, single point]"
2,CCCS(=O)(=O)n1nc(-c2ccc(OC)cc2OC)cc1N,"inconclusive: 20 µM [inhibitor, single point]"
3,COc1ccc(-c2noc(CCC(=O)NCCCN3CCN(c4ccccc4F)CC3)n2)cc1,inactive
4,COc1cc(NC(=O)N2CCNC2=O)cc(C(=O)Nc2cccc(C(F)(F)F)c2)c1,"inconclusive: 8.91 µM [inhibitor, partial curve, poor fit]"
5,COc1ccc(C(=O)CCN2CCN(c3ccc(OC)cc3)CC2)cc1,"inconclusive: 28.2 µM [inhibitor, single point]"
6,O=C(NCCCN1CCCCCC1)c1ccc2c(c1)sc1nc(-c3ccccc3)cn12,"inconclusive: 12.6 µM [inhibitor, partial curve, poor fit]"
7,C/C(CC(=O)Nc1ccc(N(C)C)cc1)=N\NC(=O)c1ccc(F)cc1,inactive
8,CCN(Cc1ccccc1)CC(O)COC(c1ccc(OC)cc1)c1ccc(OC)cc1 (configuration not stated),"inconclusive: 11.2 µM [inhibitor, single point]"
9,FC(F)(F)c1cc(Sc2ccccc2)nc(-c2ccccn2)n1,"inconclusive: 12.6 µM [inhibitor, single point]"
10,C=CCOc1cccc(C(=O)/C=C2/C(=O)Nc3ccccc32)c1,"inconclusive: 22.4 µM [inhibitor, single point]"
11,COc1ccc(Cn2cc3c(-c4ccc(F)cc4)nnc-3c3cc(OC)c(OC)cc32)cc1,"inconclusive: 28.2 µM [inhibitor, single point]"
12,CC(=O)Nc1ccc(S(=O)(=O)Nc2c(C)nn(-c3ccccc3)c2C)cc1,"inconclusive: 28.2 µM [inhibitor, single point]"
13,C=CCn1c(C2CCCCC2)n[nH]c1=S,"inconclusive: 22.4 µM [inhibitor, single point]"
14,Cc1ccc(C(=O)N2C(=S)C(c3ccc(F)cc3)=NC23CCN(C)CC3)cc1,"inconclusive: 12.6 µM [inhibitor, single point]"
15,CCCCCCCCCCCCCCCC[n+]1cccc(C(=O)N(CC)CC)c1,"inconclusive: 28.2 µM [inhibitor, single point] and inconclusive: 14.1 µM [inhibitor, partial curve, poor fit]"
16,C(=C\c1ccccc1)/CSc1nnc(-c2ccccn2)n1Cc1ccco1,"inconclusive: 3.98 µM [inhibitor, partial curve, poor fit]"
17,Nc1nc(-c2ccccc2)cc(N2CCCCC2)n1,"inconclusive: 8.91 µM [inhibitor, partial curve, poor fit]"
18,Cc1ccc2oc(=O)c3cc(C(=O)NCCCN4C(C)CCCC4C)sc3c2c1 (configuration not stated),"inconclusive: 31.6 µM [inhibitor, single point]"
19,Cc1ccc(OCC(=O)N2CCN(c3ccc([N+](=O)[O-])c(N4CCOCC4)c3)CC2)cc1,"inconclusive: 28.2 µM [inhibitor, single point]"
20,COc1ccc(C(=O)Nc2cc3c(cc2N2CCCCC2)n(C)c(=O)n3C)cc1OC,inactive
21,Cc1cc(NC(=O)CSc2nc3ccccc3c(=O)n2CCCC(=O)NCc2ccccc2)n[nH]1,"inconclusive: 28.2 µM [inhibitor, single point]"
22,COc1ccc(Cl)cc1S(=O)(=O)NCc1ccc2c(c1)CCN2C(=O)c1cccc(C)c1,"inconclusive: 11.2 µM [inhibitor, single point]"
23,O=C(/C=C/c1c(Cl)cccc1Cl)n1cccn1,"inconclusive: 22.4 µM [inhibitor, single point]"

row,Compound,Potency
1,O=S(=O)(NCc1c(Cl)cccc1Oc1ccccc1)c1ccc(F)cc1,"inconclusive: 28.2 µM [inhibitor, single point]"
2,Cc1[nH]nc2c1C(C1CC=CCC1)C(C#N)=C(N)O2 (configuration not stated),inactive
3,CCOC(=O)c1ccc(N2C(=O)c3n[nH]c(-c4ccco4)c3C2c2cccc(OC)c2)cc1 (configuration not stated),"inconclusive: 11.2 µM [inhibitor, single point]"
4,CC1CCN(CCOCCOc2ccccc2-c2ccccc2)CC1,"inconclusive: 28.2 µM [inhibitor, single point]"
5,COCCCNC(=O)c1ccc(-c2nc(CS(=O)(=O)c3ccc(C)cc3)c(C)o2)cc1,inactive
6,Cc1cccc(NS(=O)(=O)c2ccc3c(c2)CC(C)N3C(=O)C2CCC2)c1C (configuration not stated),inactive
7,O=C(Nc1ccccc1Cc1ccccc1)c1ccccc1NS(=O)(=O)c1ccc(Cl)s1,"inconclusive: 12.6 µM [inhibitor, single point]"
8,Cc1cccc2sc(N(CCN(C)C)C(=O)c3ccc4c(c3)OCCO4)nc12,"inconclusive: 11.2 µM [inhibitor, single point]"
9,Cc1cc(OCC(=O)NCC(c2cccs2)N2CCOCC2)ccc1C(C)C (configuration not stated),inactive
10,Cc1ccc(Cn2c(C)c3cnn(CC(=O)NCc4ccccc4)c(=O)c3c2C)cc1,"inconclusive: 20 µM [inhibitor, single point]"
11,O=C(O)COc1ccccc1/C=N/Nc1ccc(S(=O)(=O)Nc2ccc(Cl)cc2)cc1[N+](=O)[O-],inactive
12,CCN(CC)CCCN(Cc1cc2ccc(C)c(C)c2[nH]c1=O)C(=O)NC1CCCCC1,"inconclusive: 12.6 µM [inhibitor, partial curve, poor fit]"
13,COc1ccc2cc(-c3cc(C(=O)O)c4ccccc4n3)ccc2c1,inactive
14,Cc1cc2c(cc1C)N(C(=O)CSc1nncn1C)C(C)(C)c1ssc(=S)c1-2,"inconclusive: 28.2 µM [inhibitor, single point]"
15,CCc1nc2c(OCc3cccc(Cl)c3)cccn2c1N(C)C(=O)c1ccncc1,inactive
16,COc1cc(/C=C2/SC(=S)NC2=O)ccc1OS(=O)(=O)c1ccc(C)cc1,"inconclusive: 14.1 µM [inhibitor, single point]"
17,COc1ccc2c(c1)c1c(c(=O)n(Cc3ccccc3)c(=O)n1Cc1cccc(Cl)c1)n2C,inactive
18,Cc1cc(C)cc(NC(=O)C2CCN(S(=O)(=O)c3cn(C)cn3)CC2)c1,inactive
19,CC(C(=O)Nc1cc(Cl)cc(Cl)c1)N1CCCC1 (configuration not stated),inactive
20,O=c1oc2ccc3ccccc3c2cc1-c1nnc(Nc2ccccc2F)s1,inactive
21,CCc1cc(-c2n[nH]c(C)c2Oc2ccc(C(C)C)cc2)c(O)cc1O,"inconclusive: 31.6 µM [inhibitor, partial curve, poor fit]"
22,CCOC(=O)C1=Nc2ccccc2C1=[N+]=[N-],"inconclusive: 11.2 µM [inhibitor, single point]"
23,COc1ccccc1C(=O)N/C(=C\c1ccccc1)C(=O)NC(C)C(=O)O (configuration not stated),"inconclusive: 11.2 µM [inhibitor, partial curve, poor fit]"

row,Compound,Potency
1,CCN(CC)S(=O)(=O)c1cccc(NC(=O)c2ccc(-n3nc(C)cc3C)cc2)c1,"inconclusive: 15.8 µM [inhibitor, single point]"
2,Cc1ccc(-n2c(O)c(C=NC3CCS(=O)(=O)C3)c3ccccc3c2=O)cc1C (configuration not stated),"inconclusive: 2 µM [inhibitor, full curve, poor fit]"
3,Cc1cc2c(cc1NS(=O)(=O)c1cccc(C#N)c1)n(C)c(=O)c(=O)n2C,inactive
4,C=C(C)CNC(=S)N/N=C/c1ccco1,"inconclusive: 3.16 µM [inhibitor, full curve]"
5,Cc1ccc(CC2C(=O)N(c3cc(Cl)ccn3)C(=O)C2C)cc1 (configuration not stated),"inconclusive: 28.2 µM [inhibitor, single point]"
6,COc1ccc(CCNC(=O)c2ccc(Cn3c(=O)c4ccccc4n(Cc4cccc(F)c4)c3=O)cc2)cc1OC,"inconclusive: 28.2 µM [inhibitor, single point]"
7,CC1CCN(CC(=O)Nc2ccccc2C(=O)NC2CC2)CC1,inactive
8,NC(=S)NN=C1CCCCCCCC1,"inconclusive: 0.891 µM [inhibitor, full curve, poor fit]"
9,O=Nc1c(O)ccc2cc(S(=O)(=O)O)ccc12,"inconclusive: 31.6 µM [inhibitor, single point]"
10,CS(=O)(=O)c1ccc(Cl)c(NC(=O)CCl)c1,"inconclusive: 12.6 µM [inhibitor, single point]"
11,CCn1c(SCC(=O)OC(C)C)nnc1-c1ccccc1,"inconclusive: 10 µM [inhibitor, single point]"
12,CC(C)=CC(O)C/C(C)=C/COc1ccc2ccc(=O)oc2c1 (configuration not stated),"inconclusive: 31.6 µM [inhibitor, single point]"
13,CN(c1ccc(C(=O)Nc2ccc(F)cc2F)cc1)S(=O)(=O)c1ccccc1,"inconclusive: 28.2 µM [inhibitor, single point]"
14,COCCOC(=O)c1[nH]c2c(c1C)C(=O)CC(c1ccco1)C2 (configuration not stated),inactive
15,CCCCNC(=S)N/N=C/c1sccc1C,"inconclusive: 0.794 µM [inhibitor, full curve, poor fit]"
16,O=C1Cc2ccccc2C(=O)N1Cc1ccccc1,inactive
17,Cc1ccccc1NC(=O)c1cc(=O)c2ccccc2o1,inactive
18,COc1ccc(CNC(=S)Nc2ccccc2)cc1Cl,"inconclusive: 28.2 µM [inhibitor, single point]"
19,CCCCc1ccc(NC(=S)NN2CCOCC2)cc1,"inconclusive: 10 µM [inhibitor, single point]"
20,Cc1ccc(NC(=S)/C(C#N)=C2/Nc3ccccc3S2)cc1,"inconclusive: 3.98 µM [inhibitor, full curve, poor fit]"
21,Cc1cc(C)cc(C(=O)N2CC(=O)Nc3ccccc32)c1,"inconclusive: 0.316 µM [inhibitor, full curve, poor fit]"
